# From PubChem BioAssay AID1347055 (National Center for Advancing Translational Sciences (NCATS), 2019)
# Values joined by “and” are separate entries in the source; they are usually repeats but may differ in a detail not shown here. Equal entries are not always repeated. About 120 (0.22%) of roughly 54,000 compounds were called active. The shares of active, inactive and inconclusive entries below differ from those in the screen. Calls come from the whole dose curve; as a rule, active = well fitted inhibition curve with a large enough effect; inconclusive = small, poorly fitted or top-dose-only effect, or effect the other way; inactive = flat fitted curve, though single readings scatter. Where the call is inconclusive, the potency comes from a doubtful curve fit.
# Target: Fumarate hydratase, mitochondrial (Homo sapiens) (UniProt P07954)
# Test: Identification of activators of human fumarate hydratase by quantitative high-throughput screening; note: the screen sought activators but most active calls are inhibition curves; nearly all actives have a fitted effect of over 45% in size
# Conditions: FH coupled MDH/diaphorase resazurin fluorescence, 15 min; activity change, negative = inhibition: at 79.9 µM (top of the series)
# % is set by controls: 0 for no effect and ±100 for the full control effect; potency is the fitted concentration of half-maximal effect; tags give direction and shape of the fitted curve.
# Chain of UniProt P07954 (P07954 whole entry, looked up): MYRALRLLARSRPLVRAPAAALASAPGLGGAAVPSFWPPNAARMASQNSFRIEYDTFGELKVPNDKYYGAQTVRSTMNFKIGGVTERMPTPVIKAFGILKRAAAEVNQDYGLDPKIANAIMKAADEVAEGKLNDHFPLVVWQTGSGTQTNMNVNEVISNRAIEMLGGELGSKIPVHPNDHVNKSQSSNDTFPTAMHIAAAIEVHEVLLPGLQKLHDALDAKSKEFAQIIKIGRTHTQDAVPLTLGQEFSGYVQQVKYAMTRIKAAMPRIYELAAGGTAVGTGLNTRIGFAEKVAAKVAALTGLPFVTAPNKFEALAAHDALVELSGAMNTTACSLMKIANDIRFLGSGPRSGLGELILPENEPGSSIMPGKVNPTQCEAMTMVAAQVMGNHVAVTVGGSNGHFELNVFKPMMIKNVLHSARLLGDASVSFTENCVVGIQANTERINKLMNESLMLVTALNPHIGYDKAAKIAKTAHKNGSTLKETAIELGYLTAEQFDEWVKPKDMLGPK
Structure (SMILES),Potency,"activity change, negative = inhibition"
COc1ccc(-c2csc3ncnc(Nc4ccc(OC)cc4OC)c23)cc1,inactive,
CCCSC1=NC2(CCN(C(=O)NC3CCCCC3)CC2)N=C1c1ccc(OC)cc1,"inconclusive: 35.5 µM [inhibitor, single point]",
O=C(c1cccs1)N1CCCc2cc(NS(=O)(=O)c3ccc(Br)cc3)ccc21,"inconclusive: 15.8 µM [inhibitor, partial curve, poor fit]",
COc1cccc(-n2ccnc2SCC(=O)Nc2cccc3ccccc23)c1,,inconclusive: -30.5% [inhibitor]
C[C@@]1(c2cc(-c3cncnc3)c(F)cc2F)CCSC(N)=N1,"inconclusive: 18.5 µM [activator, partial curve, poor fit]",
Cc1nc(N2CCCC2)ncc1C(=O)Nc1ccc(OC(F)(F)F)cc1,inactive,
COc1ccc(OCc2ccc(-c3nc(C#N)c(NCc4ccc(F)cc4)o3)o2)cc1,"inconclusive: 35.5 µM [inhibitor, single point]",
OCCN1CCN(c2ncnc3c2cnn3-c2cccc(Cl)c2)CC1,inactive,
COc1cccc(CNC(=O)Nc2cn(CC(C)C)c(=O)c3ccccc23)c1,"inconclusive: 31.6 µM [activator, partial curve]",
Cc1cccc(OCCCSc2nc(-c3ccc(C(C)(C)C)cc3)nc3cc(=O)[nH]n23)c1C,"inconclusive: 22.4 µM [inhibitor, partial curve]",
O=C(c1ccc(CS(=O)c2ccccc2Cl)o1)N1CCN(c2cccc(C(F)(F)F)c2)CC1 (stereo not drawn),"inconclusive: 35.5 µM [inhibitor, partial curve, poor fit]",
CC(C)OCCCn1c(SCC(N)=O)nc2c(sc3ccccc32)c1=O,inactive,
CC(C)c1ccccc1NC(=O)CSc1nnc(COc2ccccc2)o1,inactive,
COc1cc(-c2nc3ccc(Cl)cn3c2Nc2ccc3c(c2)OCO3)ccc1O,"inconclusive: 28.2 µM [inhibitor, single point]",
COc1ccc(N2CCN(C(=O)c3cn(C)c4ccc(S(=O)(=O)N(C)C5CCCCC5)cc4c3=O)CC2)cc1,"inconclusive: 25.1 µM [inhibitor, single point]",
CCOC(=O)c1cccc(NC(=O)Nc2ccc3c(c2)N(C)C(=O)c2ccccc2S3)c1,inactive,
COc1ccc2c(Oc3ccc(NC(=O)c4c(C)n(CC(C)(C)O)n(-c5ccccc5)c4=O)cc3F)ccnc2c1,"inconclusive: 31.6 µM [inhibitor, partial curve, poor fit]",
CCOC(=O)N1CCc2c(sc3c2c(=O)n(-c2ccc(CC)cc2)c(=O)n3CC(=O)c2ccccc2)C1,inactive,
CC(C)c1ccc(S(=O)(=O)c2nnn3c2nc(N2CCOCC2)c2sccc23)cc1,"inconclusive: 28.2 µM [inhibitor, partial curve, poor fit]",
Cc1ccc(Cn2c(C)c3cnn(CC(=O)N4CCN(c5ccc(F)cc5)CC4)c(=O)c3c2C)cc1,inactive,
COc1ccc(CNC(=O)c2ccc3c(c2)N(Cc2ccccc2)CCS3)cc1,"inconclusive: 28.2 µM [inhibitor, partial curve, poor fit]",

Structure (SMILES),Potency,"activity change, negative = inhibition"
Cc1cc(Nc2cccc(C(F)(F)F)c2)nc2ccc(NC(=O)c3cccnc3)cc12,"inconclusive: 31.6 µM [inhibitor, single point]",
COc1ccc(S(=O)(=O)NCC(c2ccco2)N2CCN(c3ccccc3F)CC2)cc1C (stereo not drawn),"inconclusive: 39.8 µM [inhibitor, partial curve, poor fit]",
COCC(=O)O[C@]1(CCN(C)CCCc2nc3ccccc3[nH]2)CCc2cc(F)ccc2[C@@H]1C(C)C,"inconclusive: 31.6 µM [inhibitor, single point]",
N#C/C(=C\c1c(Oc2ccc(F)cc2)nc2ccccn2c1=O)c1nc2ccccc2s1,"inconclusive: 15.8 µM [inhibitor, partial curve]",
CC(C)c1ccc(-c2noc(SCC(=O)N(C)c3ccc(F)cc3)n2)cc1,inactive,
CCOc1ccc(N(C(=O)c2ccc(OC)cc2)S(=O)(=O)c2ccc3c(c2)n(C)c(=O)n3C)cc1,"inconclusive: 35.5 µM [inhibitor, partial curve, poor fit]",
Cc1ccc(-n2c(SCc3ccccc3C)nc3[nH]ncc3c2=O)cc1C,"inconclusive: 31.6 µM [inhibitor, single point]",
N#C/C(=C\c1ccc(-c2ccc(Cl)c(C(=O)O)c2)o1)c1nc2ccccc2[nH]1,active: 39.8 µM,
C[C@]12C=CC(=O)N[C@@H]1CC[C@H]1[C@H]3CC[C@@H](C(=O)Nc4cc(C(F)(F)F)ccc4C(F)(F)F)[C@@]3(C)CC[C@@H]12,inactive,
Oc1cc2c(c(Cl)c1O)CCNCC2c1ccccc1 (stereo not drawn),"inconclusive: 28.2 µM [inhibitor, single point]",
CN(C)c1ccc(NC(=O)CSC2=Nc3ccccc3C3=NC(CC(=O)NCc4ccc5c(c4)OCO5)C(=O)N23)cc1 (stereo not drawn),"inconclusive: 22.4 µM [inhibitor, partial curve]",
Oc1ccc(NCc2ccccc2OCc2ccccc2Cl)cc1,"inconclusive: 28.2 µM [inhibitor, partial curve]",
Cc1cccc(-n2ncc(C(=O)Nc3ccc4c(c3)OCO4)c2C2CCN(C(=O)OC(C)(C)C)CC2)c1,"inconclusive: 35.5 µM [inhibitor, partial curve]",
CC(C)C(=O)c1cc2c(cc1NC(=O)c1ccccc1F)OCCO2,"inconclusive: 44.7 µM [inhibitor, partial curve]",
Cc1ccccc1Nc1nn2c(=O)c3ccc(C(=O)NCc4cccs4)cc3nc2s1,inactive,
Cc1cc(C)cc(NC(=O)CSc2ccc(-c3cccs3)nn2)c1,"inconclusive: 25.1 µM [inhibitor, partial curve]",
Cc1ccc(Nc2nc(N)nc(CSc3nc4ccccc4s3)n2)cc1,inactive,
COc1ccc(C(OC2OC(CO)C(O)C(O)C2O)C(C)O)cc1 (stereo not drawn),inactive,
CCCCc1ccc(NS(=O)(=O)c2cc3c4c(c2)CC(=O)N4CCC3)cc1,"inconclusive: 35.5 µM [inhibitor, single point]",
CCc1ccccc1Nc1nn2c(=O)c3ccc(C(=O)NC(C)C)cc3nc2s1,inactive,
O=S(=O)(c1ccc(-c2cnc(C3CC3)o2)cc1)N1CCN(c2ccc(F)cc2)CC1,"inconclusive: 39.8 µM [inhibitor, single point]",

Structure (SMILES),Potency,"activity change, negative = inhibition"
CCn1nc(C)c2c(-c3ccccc3)cc(=O)n(C(C)C(=O)NCCc3ccc(Cl)cc3)c21 (stereo not drawn),"inconclusive: 50.1 µM [inhibitor, single point]",
CC(C)n1nc(-c2ccc(NC(=O)Nc3cccc(C(F)(F)F)c3)cc2)c2c(N)ncnc21,"inconclusive: 28.2 µM [inhibitor, single point]",
COc1nnc(-c2ccc(N3CCCCC3)c(NC(=O)c3ccc(C)cc3)c2)c2ccccc12,inactive,
Cc1ccc(C)c(Cn2c(=O)n(-c3ccccc3)c(=O)c3c4c(sc32)CCCC4)c1,inactive,
Cc1cc2oc(=O)c(CC(=O)O)c(C)c2c2occ(-c3ccccc3)c12,inactive,
COc1ccc(CCN2C(=O)N(c3cccc(OC)c3)C(=O)C2CC(=O)Nc2ccccc2)cc1 (stereo not drawn),inactive,
O=C(Nc1ccc(Br)cc1)c1cc(S(=O)(=O)NC2CCCC2)ccc1F,"inconclusive: 31.6 µM [inhibitor, single point]",
CN1CCN(c2nc3c(S(=O)(=O)c4ccc(Cl)cc4)nnn3c3ccsc23)CC1,inactive,
N#Cc1cc([N+](=O)[O-])c2sc(C(N)=O)[n+]([O-])c2c1,"active: 20 µM and inconclusive: 15.8 µM [inhibitor, partial curve]",
O=C(Nc1ccc2c(c1)CCN(Cc1ncn[nH]1)C2)c1ccccc1-c1ccc(C(F)(F)F)cc1,inactive,
CC(C)CCNC(=O)C1CCN(C(=O)c2cc3sccc3n2Cc2ccc(Cl)cc2)CC1,inactive,
CCOc1ccc(/C=C/C(=O)Nc2ccc3nc(N(CC)CC)cc(C)c3c2)cc1OC,"inconclusive: 35.5 µM [inhibitor, single point]",
Cc1cccc(N(C)S(=O)(=O)c2cc(-c3cnc(C4CC4)o3)ccc2C)c1,"inconclusive: 28.2 µM [inhibitor, partial curve]",
COc1ccc2c(c1)c1c(c(=O)n(CCc3ccccc3)c(=O)n1Cc1cccc(F)c1)n2C,"inconclusive: 44.7 µM [inhibitor, partial curve, poor fit]",
COc1ccc(Cn2c(CO)cnc2SCc2ccc(C)cc2)cc1,inactive,
Cc1ccc(S(=O)(=O)Nc2ccc3nc(-c4cccc(Cl)c4)oc3c2)cc1,"inconclusive: 31.6 µM [inhibitor, single point]",
CC(C)c1onc(-c2c(Cl)cccc2Cl)c1COc1ccc(C=Cc2cccc(C(=O)O)c2)c(Cl)c1,"inconclusive: 54.4 µM [inhibitor, partial curve, poor fit]",
CCN(C(=O)C1CCN(S(=O)(=O)c2c(C)noc2/C=C/c2ccc(C)cc2)CC1)c1cccc(C)c1,"inconclusive: 39.8 µM [inhibitor, partial curve, poor fit]",
CCOc1cc(C(C)(C)C)ccc1C1=N[C@@](C)(c2ccc(Cl)cc2)[C@@](C)(c2ccc(Cl)cc2)N1C(=O)N1CCN(CC(=O)N2CCOCC2)CC1,"inconclusive: 14.8 µM [inhibitor, single point]",
Cc1nn2c(C)c(C(=O)NCCc3ccccc3)cnc2c1-c1ccccc1,"inconclusive: 35.5 µM [inhibitor, single point]",
CCOc1ccc(S(=O)(=O)NCCc2csc(-c3ccc(Cl)cc3)n2)cc1,"inconclusive: 17.8 µM [inhibitor, partial curve, poor fit]",
